Reference: PubChem BioAssay AID1508623 (National Center for Advancing Translational Sciences (NCATS), 2021)
Out of some 48,000 compounds screened, about 450 (0.94%) were called active. Inconclusive means that the source gave no clear call. Such entries were picked first, then a sample of the others. Calls follow the shape of the dose curve; as a rule, active = well fitted inhibition curve with a large enough effect; inconclusive = small, poorly fitted or top-dose-only effect; inactive = no such curve, though single readings can be large or run the other way. A potency beside an inconclusive call is a rough fit, not a confirmed value.

experiment: Primary qHTS for Identification of Small Molecule Inhibitors of Huntingtin Promoter Activity; conditions: HEK293 HTT promoter firefly luciferase reporter (activity 0% = vehicle and -100% = no light), 24 h; activity change, negative = inhibition: at 57.5 µM (top of the series); also: nearly all actives have a fitted effect of over 50% in size
How it was run: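 Firefly luciferase signal from promoter-reporter HEK293 cells was scaled between vehicle (0%) and zero RLU (-100%). Compounds were tested at final concentrations of up to 57.5 uM over 24 h at 37 degrees C. PTC124 at 50 uM final served as control inhibitor.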
Potency is read from the fitted curve at half-maximal effect; tags tell the direction and shape of the fitted curve.

Activity change, negative = inhibition, inactive:
Cc1ccccc1NC(=O)c1c(NC(=O)c2ccccc2)sc2c1CCC2 9.27%
COC(=O)Cn1c(=NC(=O)c2ccc3c(c2)OCCO3)sc2ccccc21 26%
C=CC(=O)N1CCC[C@@H](n2nc(-c3ccc(Oc4ccccc4)cc3)c3c(N)ncnc32)C1 -1.05%
CC(C)CCOc1ccc(C2N=C(N)Nc3nc4ccccc4n32)cc1 (configuration not stated) -20.3%
O=S(c1cc(Cl)cc(Cl)c1O)c1cc(Cl)cc(Cl)c1O -4.19%
O=c1[nH]c(=O)n([C@H]2C[C@@H](O)[C@@H](CO)O2)cc1C(F)(F)F -12.2%
COCCn1ccc2c(OCC(=O)Nc3c(C)cc(C)cc3C)cccc2c1=O -11.7%
O=C(Nc1ccccc1)Nc1ccc(-c2ccc(C(=O)[C@H]3CCC[C@H]3C(=O)O)cc2)cc1 21%
CCN(C(=O)CN(C)S(=O)(=O)c1ccc2c(c1)n(C)c(=O)c(=O)n2C)c1cccc(C)c1 -19%
CC(=O)Nc1c(C(=O)Nc2cccc(C)c2)nnn1-c1ccc(C)cc1 16.7%
Cc1cc(N2CCN(C)CC2)nc2ccc(NC(=O)Nc3ccccc3)cc12 61.8%
CCOc1ccc2nc(N3CCCC(C(=O)Nc4cc(C)ccc4C)C3)sc2c1 (configuration not stated) 38.3%
COCCNC(=O)CCCn1c(SCC(=O)c2ccc(Br)cc2)nc2c(sc3ccccc32)c1=O -12%
COc1cccc(C(=O)Nc2cccc(-c3nc4ncccn4c3C)c2)c1 3.45%
CNC(=O)[C@H](Cc1ccccc1)NC(=O)[C@H](CC(C)C)[C@H](CSc1cccs1)C(=O)NO -14.5%
Cc1cc(C)cc(NC(=O)C2CCCN2S(=O)(=O)c2ccc3nc(-c4ccccc4)[nH]c3c2)c1 (configuration not stated) -17.7%
O=C(Nc1ccc(Cl)c(Cl)c1)N1CCC(c2ccccc2)C1 (configuration not stated) 49.9%
COc1ccc2c(c1)-c1nc(NC(=O)c3ccc(Cl)cc3)sc1CC2 -29.6%

Potency, active:
O=C(NCCc1ccccc1)C(=O)NCC(c1cccnc1)N1CCN(c2ccc(F)cc2)CC1 (configuration not stated) 14.1 µM

Potency, inconclusive:
CCOc1ccc(NC(=O)CC2C(=O)N(c3ccccc3)C(=O)N2CCc2cccs2)cc1 (configuration not stated) 3.55 µM [inhibitor, partial curve, poor fit]
Cc1ccn2c(Nc3c(C)cccc3C)c(-c3ccsc3)nc2c1 28.2 µM [inhibitor, partial curve, poor fit]
Cc1cc(N2CCN(C)CC2)nc2ccc(NC(=O)c3ccc(C(C)(C)C)cc3)cc12 35.5 µM [inhibitor, single point]
CN(Cc1ccccc1)c1nnc(NC(=O)Nc2cccc(Br)c2)s1 31.6 µM [inhibitor, single point]
CCOc1cccc2sc(N3CCN(C(=O)c4ccc5c(c4)CCCC5)CC3)nc12 39.8 µM [inhibitor, single point]
COc1ccc(S(=O)(=O)c2cnc3cc(OC)c(OC)cc3c2N2CCCC(C)C2)cc1 (configuration not stated) 31.6 µM [inhibitor, single point]
O=C(NCc1ccccc1)c1nc(S(=O)(=O)Cc2ccc(F)cc2)ncc1Cl 39.8 µM [inhibitor, single point]
CCCCN(CC)C(=O)CSc1nc2n[nH]c(C)c2c(=N)n1-c1cccc(C)c1 25.1 µM [inhibitor, partial curve, poor fit]
COc1ccc(CC(=O)Nc2cc(-c3cn4cccnc4n3)ccc2C)cc1OC 25.1 µM [inhibitor, partial curve, poor fit]
Cc1cccc(Cc2cnc(NC(=O)c3ccc4c(c3)CC(c3ccccc3)OC4=O)s2)c1 (configuration not stated) 2.24 µM [inhibitor, full curve]
CC(C)Oc1ccc(CNC(=O)c2ccc3nc(SCc4ccc(F)cc4)n(C)c3c2)cc1 2.24 µM [inhibitor, single point]
COc1cccc(N2CCN(C(=O)c3ccc(CS(=O)c4cccc(Cl)c4)o3)CC2)c1 (configuration not stated) 2.51 µM [inhibitor, partial curve, poor fit]
O=C(Nc1ccc2oc(-c3cccnc3)nc2c1)c1ccc(-c2cccc(OC(F)(F)F)c2)o1 8.91 µM [inhibitor, partial curve, poor fit]
COc1ccc(NC(=O)CN(C)S(=O)(=O)c2ccc3[nH]c4c(c3c2)CCCC4)cc1OC 39.8 µM [inhibitor, single point]
CCCN1C(C(=O)c2ccccc2)=C(OC(=O)c2ccc(F)cc2)c2ccccc2S1(=O)=O 39.8 µM [inhibitor, single point]
CCc1nnc(NC(=O)c2nc(S(C)(=O)=O)ncc2Cl)s1 39.8 µM [inhibitor, single point]
COc1cccc(Cc2nc3ccccc3nc2SCC(=O)N2CCCCC2C)c1 (configuration not stated) 31.6 µM [inhibitor, single point]
O=C(NCc1ccco1)c1ccc2c(c1)N(Cc1ccc(F)cc1)C(=O)c1ccccc1S2=O (configuration not stated) 31.6 µM [inhibitor, single point]
O=C(c1cccs1)N1CCCc2cc(NS(=O)(=O)c3ccc(Cl)cc3)ccc21 35.5 µM [inhibitor, partial curve, poor fit]
Cc1cccc(-c2noc(-c3ccc(N4CCCC4)c([N+](=O)[O-])c3)n2)c1 11.2 µM [inhibitor, partial curve]
COc1ccc(NC(=O)C2CCN(S(=O)(=O)c3c(C)noc3/C=C/c3ccco3)CC2)cc1 20 µM [inhibitor, partial curve, poor fit]
COc1ccc(NS(=O)(=O)c2ccc3[nH]c4c(c3c2)CCCC4)c(OC)c1 25.1 µM [inhibitor, partial curve, poor fit]
Cc1ccc(NC(=O)Nc2cc3c(cc2N2CCCCC2)n(C)c(=O)n3C)cc1Cl 25.1 µM [inhibitor, single point]
C[C@@H]1CN(CC(=O)Nc2ccc3c(c2)Cc2cccc(-c4cc(=O)cc(N5CCOCC5)o4)c2S3)C[C@H](C)O1 10.9 µM [inhibitor, partial curve]
CCc1ccc(-c2cc(C)no2)cc1S(=O)(=O)N1CCN(c2cccc(Cl)c2)CC1 10 µM [inhibitor, partial curve, poor fit]
COc1ccc(NC(=O)c2oc3ccc(S(=O)(=O)N(C)C4CCCCC4)cc3c2C)cc1Cl 11.2 µM [inhibitor, partial curve, poor fit]
CCOC(=O)c1[nH]c(C)c(CCC(=O)Nc2ccccc2C(=O)OC)c1C 12.6 µM [inhibitor, partial curve, poor fit]
Cc1ccc(CNC(=O)CSc2nnc(C)c3c(C)n(-c4ccccc4)nc23)cc1 39.8 µM [inhibitor, single point]
Cc1cc(NC(=O)CCc2nc3cccnc3n2Cc2cccs2)ccc1Br 20 µM [inhibitor, single point]
Cc1ccc(NS(=O)(=O)c2cc(-c3cc(C)no3)ccc2C)c(Cl)c1 20 µM [inhibitor, single point]
COc1cccc(CNC(=O)CN2C(=O)N(c3ccc(C)cc3C)S(=O)(=O)c3ccccc32)c1OC 15.8 µM [inhibitor, partial curve, poor fit]
COc1ccc(C)cc1-n1cnc2cc(C(=O)NC3CCCCCC3)ccc21 31.6 µM [inhibitor, single point]
CCSc1ncc(Cl)c(C(=O)Nc2c(C(=O)Nc3ccccc3)oc3ccccc23)n1 1.78 µM [inhibitor, full curve, poor fit]
O=C(NCCn1cc(SCc2ccc(Br)cc2)c2ccccc21)c1cccs1 39.8 µM [inhibitor, single point]
CCCC(=O)N1CCc2cc(OC)c(OC)cc2C1COc1ccc(C(=O)OC)cc1 (configuration not stated) 15.8 µM [inhibitor, partial curve, poor fit]
O=C(OCc1cc(=O)n2c3c(sc2n1)CCCC3)c1cccc(NC(=O)c2ccccc2F)c1 39.8 µM [inhibitor, partial curve, poor fit]
CC1CCCCN1CC(=O)N1CCCc2c1c(=O)oc1ccc(OCc3ccccc3)cc21 (configuration not stated) 35.5 µM [inhibitor, partial curve, poor fit]
CCOc1ccccc1C(=O)Nc1ccc(S(=O)(=O)N2CCCCC2c2cccnc2)cc1 (configuration not stated) 31.6 µM [inhibitor, partial curve, poor fit]
COc1ccc(-c2nc(CNS(=O)(=O)c3ccc(C)cc3)cs2)cc1 20 µM [inhibitor, partial curve, poor fit]
CCCCN(CC)C(=O)Nc1ccc2c(c1)N(C)C(=O)c1ccccc1S2 28.2 µM [inhibitor, single point]
COc1ccc(OC)c(-c2noc(CSc3nnc(Cc4ccccc4)n3-c3cccc(C)c3)n2)c1 31.6 µM [inhibitor, single point]
COc1ccc(Br)cc1CNC(=O)CN1CCSc2ccccc21 28.2 µM [inhibitor, partial curve]
Cc1cccc(NC(=O)Cn2cc(C(=O)c3ccco3)c3ccccc32)c1C 28.2 µM [inhibitor, single point]
